The campaign covered roughly 100,000 compounds. About 250 (0.25%) were called active. This list was built around the results that the source calls inconclusive (neither active nor inactive); the mix of calls is not that of the screen. Calls come from the whole dose curve; as a rule, active = well fitted inhibition curve with a large enough effect; inconclusive = small, poorly fitted or top-dose-only effect; inactive = flat fitted curve, though single readings scatter. No potency is given beside an inconclusive call; the fits are too rough.
Molecular target: Alanine aminotransferase 2 (Homo sapiens) (UniProt Q8TD30)
Assay: Primary qHTS assay for inhibitors of Glutamate pyruvate transaminase 2 (GPT2); note: nearly all actives have a fitted effect of over 60% in size
Settings: Recombinant GPT2, coupled pyruvate oxidase/HRP Amplex Red fluorescence; activity change, negative = inhibition: at 57.7 µM (top of the series) unless noted; series mostly up to 57.7 µM
Summary of the method: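 Recombinant GPT2 (10ng/uL) with 250uM a-KG and 2mM L-alanine, 30 min at room temperature, in HEPES pH 7.5 buffer. Pyruvate detected by pyruvate oxidase/HRP/Amplex Red fluorescence after 30 min in the dark; AOA (50uM) as positive control.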
% is set by controls: 0 for no effect and ±100 for the full control effect; potency is the fitted concentration of half-maximal effect; tags give direction and shape of the fitted curve.

Sequence of UniProt Q8TD30 (Q8TD30 whole entry, looked up): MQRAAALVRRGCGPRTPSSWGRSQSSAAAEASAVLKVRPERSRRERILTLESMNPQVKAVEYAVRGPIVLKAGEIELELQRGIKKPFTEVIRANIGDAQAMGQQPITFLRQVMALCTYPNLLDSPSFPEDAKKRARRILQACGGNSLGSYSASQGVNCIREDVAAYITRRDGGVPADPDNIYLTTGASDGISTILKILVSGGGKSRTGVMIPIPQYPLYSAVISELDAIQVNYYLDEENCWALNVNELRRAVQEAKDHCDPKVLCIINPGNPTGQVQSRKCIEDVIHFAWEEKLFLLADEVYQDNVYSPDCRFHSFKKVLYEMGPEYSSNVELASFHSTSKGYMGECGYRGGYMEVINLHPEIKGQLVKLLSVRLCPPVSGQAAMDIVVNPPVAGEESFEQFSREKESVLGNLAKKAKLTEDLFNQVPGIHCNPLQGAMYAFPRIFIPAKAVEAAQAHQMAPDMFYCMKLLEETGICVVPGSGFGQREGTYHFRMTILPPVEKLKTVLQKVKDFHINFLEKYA

| SMILES | Potency | activity change, negative = inhibition | outcome |
| --- | --- | --- | --- |
| Cc1noc(-c2ccc(OC3CN(C(=O)CN4C(=O)CCC4=O)C3)cc2)n1 | inconclusive [inhibitor, single point] |  |  |
| Cc1ccc(NC(=O)C2CCc3nnc(C4CC4)n32)cc1 (stereo not given) | inconclusive [inhibitor, partial curve, poor fit] |  |  |
| COc1ccc(CN2CC3(CCN(C(=O)Nc4cccc(C)c4)CC3)C2=O)cc1 |  | inactive: -3.91% |  |
| CCCNCc1ccc(-c2ccccc2)o1 | inconclusive [inhibitor, single point] |  |  |
| CC(C)CN1CCc2[nH]cnc2C12CCN(C(=O)c1n[nH]c3c1CCC3)CC2 | inconclusive [inhibitor, full curve, poor fit] |  |  |
| CC1=C[C@@H](CNS(C)(=O)=O)[C@H](C(C)C)C[C@H]1Cc1nc2ccc(Cl)cc2[nH]1 |  | inactive: -15% [at 88.5 µM] |  |
| O=C(Nc1ccccc1)N1CCC(Oc2ccccc2-c2nc(-c3ccccc3)no2)C1 (stereo not given) |  | inactive: -2.52% |  |
| N#Cc1cccc(C(=O)N2CCN(C(=O)c3nnn4c3COC(c3ccccc3)C4)CC2)c1 (stereo not given) | inconclusive [inhibitor, single point] |  |  |
| C[S+](=O)([O-])c1cccc(-c2nccc3c(=O)cc(N4CCOCC4)oc23)c1 | inconclusive [inhibitor, full curve] |  |  |
| CCCC(=O)c1cc(O)c(O)cc1O | inconclusive [inhibitor, full curve, poor fit] |  |  |
| O=C(Nc1ccc(Cl)cc1)N1CCC(C(=O)N2CCC(N3CCOCC3=O)CC2)CC1 | inconclusive [inhibitor, single point] |  |  |
| COc1ccc2cc(C3CN(C(=O)c4cccn4C)CCO3)ccc2c1 (stereo not given) | inconclusive [inhibitor, partial curve, poor fit] |  |  |
| CC(C)c1nccn1Cc1cc(C(=O)NCc2cc(C(C)(C)C)n[nH]2)n[nH]1 | inconclusive [inhibitor, partial curve, poor fit] |  |  |
| O=C(NC1CCN(c2cc(-c3cccs3)[nH]n2)C1)c1ccc(Br)o1 (stereo not given) | inconclusive [inhibitor, partial curve] |  |  |
| Cc1noc(-c2ccn3c(CNC(=O)c4nccc5ccccc45)nnc3c2)n1 | inconclusive [inhibitor, partial curve, poor fit] |  |  |
| O=C(CC(c1ccccc1)c1cn(Cc2ccccc2)c2ccc([N+](=O)[O-])cc12)N1CCOCC1 (stereo not given) |  |  | inactive |
| C#CCNC(=O)C[C@@H]1C[C@@H](C(C)C)[C@H](CNC(=O)NC2CCCCC2)C=C1C | inconclusive [inhibitor, single point] |  |  |
| Cc1ccccc1C(=O)N1CCCC(C(=O)N2CCC(c3nc4ccncc4[nH]3)C2)C1 (stereo not given) |  | inactive: 2.86% |  |
| CCOCC(=O)N1CCC(Nc2cccn3ncnc23)CC1 | inconclusive [inhibitor, single point] |  |  |
| Cc1cc(Cn2cc3c4c(cccc42)[C@H](CC(C)C)N[C@H](C(=O)NCc2ccc(C)o2)C3)no1 | inconclusive [inhibitor, single point] |  |  |
| C[C@@H]1CN(C(=O)c2ccc(C(F)(F)F)cc2)C[C@@]1(O)C1CC1 |  | inactive: 2.19% |  |
| Cc1cnc(C2CCN(Cc3ccc(F)cc3F)C2)n1Cc1ccccc1 (stereo not given) | inconclusive [inhibitor, partial curve, poor fit] |  |  |

| SMILES | Potency | activity change, negative = inhibition | outcome |
| --- | --- | --- | --- |
| C#CCNC(=O)c1nc2sccn2c1Br | inconclusive [inhibitor, full curve, poor fit] |  |  |
| CCNC(=O)NC[C@H]1COCc2nc3cc(C(=O)OC)ccc3n21 |  |  | inactive [at 88.5 µM] |
| Cc1ccc(CCNC(=O)C2CCN(c3cc(C(F)(F)F)nc(C)n3)CC2)cc1 |  | inactive: -6.33% |  |
| O=C(c1ccsc1)N1CC(c2noc(C3CCCN3CC3CC3)n2)C1 (stereo not given) |  | inactive: 4.6% |  |
| Cc1cc(C)cc(-c2ccc(CN3CCCC(NC(=O)Cc4ccccn4)C3)cc2)c1 (stereo not given) |  | inactive: -10.2% |  |
| CC(C)(C)CC(=O)N1CCN2C(=O)c3cc(Br)ccc3NC(=O)[C@H]2C1 | inconclusive [inhibitor, single point] |  |  |
| COc1cccc(CN2CCc3c(cc(C(=O)Nc4ccccc4OC)n3C)C2)c1 |  |  | inactive |
| O=C(C(=O)N1CCC(c2cc(Cc3ccccc3)[nH]n2)CC1)c1cccnc1 |  |  | inactive [at 11.5 µM] |
| COCCOC(=O)C1=C(C)NC2=C(C(=O)CC(c3ccccc3OC)C2)C1c1cccc(O)c1 (stereo not given) | inconclusive [inhibitor, partial curve, poor fit] |  |  |
| O=C(NCC1CN(Cc2ccncc2)CC12CN(c1ccccc1)C2)Nc1ccccc1 (stereo not given) |  | inactive: -21.6% [at 88.5 µM] |  |
| O=C(NCc1ccccc1)N1CCC2(CC1)SCC(=O)N2c1ccc(Cl)cc1 |  | inactive: 2.62% |  |
| O=C(O)CCc1nc(-c2ccccc2)c(-c2ccccc2)o1 | inconclusive [inhibitor, single point] |  |  |
| O=C(NC1CCN(c2cc(-c3cccs3)[nH]n2)C1)c1ccccn1 (stereo not given) | inconclusive [inhibitor, partial curve] |  |  |
| O=C1COc2ccc(OCc3cncs3)nc2CN1Cc1ccc(F)cc1 | inconclusive [inhibitor, single point] |  |  |
| CCCCCC(=O)N1CC[C@@H](CC(=O)O)[C@@H](CC2=NCCc3cc(OC)ccc32)C1 |  |  | inactive [at 88.5 µM] |
| Cc1nn2c(c1-c1cccnc1N1CCOCC1)N(CCc1ccccc1)CCC2 |  |  | inactive [at 88.5 µM] |
| Cn1nccc1C(=O)N1CCN(C2CCN(Cc3cccnc3)C2=O)CC1 (stereo not given) | inconclusive [inhibitor, single point] |  |  |
| O=C1CCN(C(=O)c2cccc3[nH]ccc23)CCCC(C(=O)NCc2ccccc2)CCN1 (stereo not given) | inconclusive [inhibitor, full curve, poor fit] |  |  |
| O=C(N[C@H]1[C@H]2CCO[C@H]2[C@@H]1N1CCCC1)c1ccc(-c2cccc(F)c2)cc1 | inconclusive [inhibitor, full curve] |  |  |
| C=CC1(C)C=C2C(=O)CC3C(C)(C)CCCC3(C(=O)O)C2(O)CC1 (stereo not given) | inconclusive [inhibitor, single point] |  |  |
| CNC(=O)CC1C(=O)NCCN1CC(=O)Nc1cc(OC)cc(OC)c1 (stereo not given) |  |  | inactive |
| COc1cc2c(cc1OC)C(C[C@H]1CN(C(=O)c3ccco3)CC[C@H]1CC(=O)O)=NCC2 | inconclusive [inhibitor, full curve, poor fit] |  |  |

| SMILES | Potency | activity change, negative = inhibition | outcome |
| --- | --- | --- | --- |
| CNC(=O)N1CCC(C2CCN(C(=O)Cc3ccsc3)C2)CC1 (stereo not given) |  |  | inactive |
| COc1ccc(NC(=O)C2CCc3nnc(C4CCN([S+](=O)([O-])c5ccccc5Cl)CC4)n32)cc1 (stereo not given) |  |  | inactive |
| COc1ccc(N2CCN(c3nc(C(=O)NC4CC4)cs3)CC2)cc1 | inconclusive [inhibitor, partial curve] |  |  |
| COCCOC1CN(C2CCN(Cc3ccc(F)cc3F)CC2)C12CCCCC2 (stereo not given) | inconclusive [inhibitor, single point] |  |  |
| COC(=O)[C@@H]1Cc2ncn(C(C)C)c2CN1S(=O)(=O)Cc1ccccc1 | inconclusive [inhibitor, partial curve, poor fit] |  |  |
| CC(C)NC(=O)N1CCC(O)(c2csc(CN3CCN(C)CC3)n2)CC1 | inconclusive [inhibitor, single point] |  |  |
| CC(C)c1ccc(CNC(=O)CN2CC3CC(C2)[C@H]2CCCC(=O)N2C3)cc1 (stereo not given in full) | inconclusive [inhibitor, partial curve, poor fit] |  |  |
| O=c1c(-c2ccc(O)cc2)coc2cc(O[C@@H]3O[C@H](CO)[C@H](O)[C@H](O)[C@H]3O)ccc12 |  |  | inactive |
| CC(=O)N1CC(C(=O)NCc2ccccc2F)CC(c2cccc(C)c2)C1 (stereo not given) | inconclusive [inhibitor, single point] |  |  |
| O=C(O)C1(Oc2ccc3ccccc3c2)CCN(c2ncnc3nc[nH]c23)CC1 |  | inactive: 2.85% |  |
| C[S+](=O)([O-])N1CCC2(CC(=O)Nc3ccccc3N2)C1 (stereo not given) | inconclusive [inhibitor, single point] |  |  |
| CN1CC(=O)N(C2CCNCC2)Cc2c(NC3CCCCC3O)ncnc21 (stereo not given) | inconclusive [inhibitor, full curve, poor fit] |  |  |
| CN1CCC(N2C[C@@H]3C[C@H]2C(=O)N(Cc2cccnc2)c2ccccc2O3)CC1 |  | inactive: -7.13% [at 88.5 µM] |  |
| CN1CC2(CCN(C3CCCC3)CC2)CC1C(=O)N1CCOCC1 (stereo not given) | inconclusive [inhibitor, single point] |  |  |
| C[C@@H]1O[C@@H](O[C@H]2[C@H](O)[C@@H](C(=O)O)O[C@@H](O[C@H]3CC[C@@]4(C)C(CC[C@]5(C)C4CC=C4C6CC(C)(C)CC[C@]6(C(=O)O)CC[C@]45C)C3(C)C)[C@@H]2O[C@@H]2O[C@H](CO)[C@@H](O)[C@H](O)[C@H]2O)[C@H](O)[C@H](O)[C@H]1O (stereo not given in full) | inconclusive [inhibitor, single point] |  |  |
| CCN1CCN(C(=O)c2cc(-c3cccc(C(F)(F)F)c3)nc3c2cnn3C)CC1 |  | inactive: 0.617% |  |
| CCc1nc(CC)n2ccn(Cc3ccc(OC)cc3)c(=O)c12 |  | inactive: -0.314% |  |
| CC(C)N1C(=O)C2(CCCCC2)C1C(=O)N1CCCCC1 (stereo not given) | inconclusive [inhibitor, single point] |  |  |
| CC(C)(N)C(=O)N1CCCC(N2CCN(c3ccc(F)cc3)CC2)C1 (stereo not given) | inconclusive [inhibitor, partial curve, poor fit] |  |  |
| CN(Cc1nc(Cc2ccccc2Cl)no1)Cc1cccc2cnccc12 |  |  | inactive |
| CCC(=O)N1Cc2ccccc2CC2(CCN(Cc3ccncc3)C2)C1 (stereo not given) | inconclusive [inhibitor, single point] |  |  |

Source: PubChem BioAssay AID1671188 (National Center for Advancing Translational Sciences (NCATS), 2021)
